Reference: the supplement of paper PMC11417369
The list shows a part of the results.

What follows are sequences tested on PfHDP1 homeodomain (GST-tagged) (assay: gcPBM binding intensity (ln(normalized median fluorescence intensity)); higher = stronger DNA binding).
Summary of the method: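 Binding intensity is the highest Masliner-normalised natural-log median intensity over replicate spots in either probe orientation. To obtain it, GST-tagged P. falciparum DNA-binding domains made in E. coli were incubated for 1 h on an Agilent 4 × 180k array of primer-extended double-stranded 36-bp intergenic genomic probes plus negative controls. Detection used Alexa488 anti-GST antibody with scanning at 488 nm.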

Sequence	gcPBM binding intensity (ln)
GAATAAAAAATATATGTGCACATATAAACTTAAAAT [GTGCAC_site9554]	10.7
TAATATAAAGGAAAAGAAAAGAAAAGAATATACAAT [CACACA_negctrl_site1369]	6.37
AAACCAATAAAAAACTGTACAAAAATTATATGAGAT [XGTACX_site1269]	6.8
ACTACCTATATTTAAGCATGCAAAAAATAAAAATAT [TGCATGCA_site238]	7.08
ATAAATTGTTCTTTTTGTGTAAACAGAATATTAAAA [CACACA_negctrl_site1022]	6.12
TATATATATACATAATGTACATTTTATAAATTTACA [XGTACX_site5283]	7.47
ATATTTTAAATGTTATGTACACATTTGTTGTTTACA [XGTACX_site7353]	6.92
AATATTATTATTATTACACACACAATTATATTTACC [CACACA_site8061]	6.61
TTAATTTGTTCTTACACACACATATATATATATTTA [CACACA_site1185]	6.82
ATTTTTTTTTTTATTTTCTTTGAGATTATCTTAATT [CACACA_negctrl_site1209]	6.36
TCCTTTTTTAAAAGTTGTACATTATTGTTATTTGTT [XGTACX_site4686]	6.41
ATACAATAAAATAAGTTTGAATAAAATTAAATATAT [CACACA_negctrl_site877]	6.29
GAAGGAAATAATAGTAGTACAAATGGTAAGAAATAT [XGTACX_site5845]	7.26
TTCCTCTTAATATGTGCACACTAAATTATAACCTAA [CACACA_site5751]	11.3
TATATAAATGTTATCACACACTCACGTTTGACAAAA [CACACA_site6468]	6.36
TTTACAATATAAAATACACACACACTAACATATATT [CACACA_site9231]	7.02
TTTACAATATTAAAATGTACATATAAAATAAATAAA [XGTACX_site8367]	6.61
TTTCCCAAGCTTATTACACACAAGTAGAATAAGCTT [CACACA_site1561]	6.27
TATATAGGTAAAAAATGTACTTATATTGAATATATT [XGTACX_site4414]	5.97

Sequence	gcPBM binding intensity (ln)
GATATCAAATATAAATGTACAAATTATATATACATA [XGTACX_site3228]	6.09
TTCTTATTTATTTTCTTCTCCTTCCTCAAATTTTTT [GTGCAC_negctrl_site592]	6.63
AATTTGTTAATATTTTGTACACATAATATAAAAACA [XGTACX_site2224]	6.48
GAGAAAGATATATACACACACATAAATATGTACATA [CACACA_site6975]	6.59
GGTAATTATTTTGGTTGTACTCAAATATATAATATT [XGTACX_site291]	6.71
AAACATAAAGAAAAAAAAAATATATATTTATTTATT [GTGCAC_negctrl_site357]	6.33
TATATGTTATATTGGACACACACAATAAACATTATG [CACACA_site8480]	6.44
ATAAAAATGGTGTTAACACACACATATATATATATA [CACACA_site8089]	9.28
TTATTTAAATATTGATGTACTCTCCTTATTATAATA [XGTACX_site1240]	6.76
ATATATTAACAAAAGGTGCTTTTGGCAAAGTATAAT	6.65
ATTATATTTATGTTGGTGCATTATACATGAAATTTA	10.5
AATATAATACAATATTGTACATAATATAAATTAAAA [XGTACX_site4064]	6.58
ATGTCATAAATGTACGCACACATACATAAACATATA [CACACA_site4530]	6.97
TTCATTTTAATTTCCAGTACACATATATATACATAT [XGTACX_site558]	6.93
ATTTATTTCTATAATACACACAAATATCTTAATTAA [CACACA_site7801]	6.3
AATAAAAAAATAAAATGTACATACAAATAAATAAAT [XGTACX_site5153]	6.66
TGCAACAAAATAAACACACACACACCCCCACAAAAA [CACACA_site3388]	8.22
TATTTTAATGAAGCATTTAAGGGAAAAAAAAAAAAA [TGCATGCA_negctrl_site606]	6.49
TTATACTGTTTCAGAAAAATAAAGAATGAAAGTATT [XGTACX_negctrl_site230]	6.82

Sequence	gcPBM binding intensity (ln)
TTTTTATATTCCCCCAGTACATATATAATAGTAGTA [XGTACX_site7927]	8.08
TTAATTAAAATTTATACATGCATAAAAGAAATACAC [TGCATGCA_site537]	7.3
ATTACATGTTACTTAACACACATCTGGTGAAATAAT [CACACA_site171]	6.53
GTAATGAAACATTGCACACATATAATAATATAATAT [CACACA_site1422]	9.86
ATTTTTTTCTTTTCTTTTTTCTTTTTTTTTTTTGGT [CACACA_negctrl_site1146]	5.87
GTATACCAACATATTATACACACCTTTATATTTTTT [CACACA_site2153]	6.73
TTTAAGAGTTGCACACGTACAAAAAAAAAAAAAAAA [XGTACX_site7406]	9.8
ATAAGATGATGGAACTGTAATATATATATATATATA [CACACA_negctrl_site839]	9.21
TTGTATACATAAAATGGTACAGAATATATAATTCTA [XGTACX_site7236]	6.27
ATATATATGCATATATGTACTTAAAATATAAAGGCA [XGTACX_site3256]	6.64
TTTACGCTATAGGAGAGTACTTATAAAATCCTGTGT [XGTACX_site2364]	6.29
TTCATATATTTTAAAGCATGCATTCATCTTATAGTT [TGCATGCA_site800]	6.44
AGACGAAAATAATAAAGTACTAAAAAAAAAAAAAAA [XGTACX_site927]	6.34
TACAAAATATATATGACACACACAAAAAAAGTATAT [CACACA_site8455]	6.83
TATTTTTCCATTGGGGGTACATGTGTTATATTTATT [XGTACX_site5914]	8.68
TACCTAAATAAATGGACACACACATATATATATATA [CACACA_site8407]	9.32
TTATAGCCTGTGAAGAGTACATTTTTATTTTTTATT [XGTACX_site4105]	6.23
AAGTAATACAACACGCACATATATATATATATATAT [GTGCAC_negctrl_site89]	9.41
